Reference: the supplement of paper PMC3334620
The full ranking holds about 33,000 sequences; the median of “E-score (-0.5 to 0.5)” is about -0.012, and the highest 2% start at about 0.29. This is one part of the list.

biological target: T1, Ybr033w (UniProt P38073); experiment: PBM E-score (8-mer binding enrichment) (E-score (-0.5 to 0.5)); higher = stronger / more preferred TF binding; most listed sequences are background and not binding sites; settings: protein concentration: 200 nM; construct: GST-full length
T1 sequence: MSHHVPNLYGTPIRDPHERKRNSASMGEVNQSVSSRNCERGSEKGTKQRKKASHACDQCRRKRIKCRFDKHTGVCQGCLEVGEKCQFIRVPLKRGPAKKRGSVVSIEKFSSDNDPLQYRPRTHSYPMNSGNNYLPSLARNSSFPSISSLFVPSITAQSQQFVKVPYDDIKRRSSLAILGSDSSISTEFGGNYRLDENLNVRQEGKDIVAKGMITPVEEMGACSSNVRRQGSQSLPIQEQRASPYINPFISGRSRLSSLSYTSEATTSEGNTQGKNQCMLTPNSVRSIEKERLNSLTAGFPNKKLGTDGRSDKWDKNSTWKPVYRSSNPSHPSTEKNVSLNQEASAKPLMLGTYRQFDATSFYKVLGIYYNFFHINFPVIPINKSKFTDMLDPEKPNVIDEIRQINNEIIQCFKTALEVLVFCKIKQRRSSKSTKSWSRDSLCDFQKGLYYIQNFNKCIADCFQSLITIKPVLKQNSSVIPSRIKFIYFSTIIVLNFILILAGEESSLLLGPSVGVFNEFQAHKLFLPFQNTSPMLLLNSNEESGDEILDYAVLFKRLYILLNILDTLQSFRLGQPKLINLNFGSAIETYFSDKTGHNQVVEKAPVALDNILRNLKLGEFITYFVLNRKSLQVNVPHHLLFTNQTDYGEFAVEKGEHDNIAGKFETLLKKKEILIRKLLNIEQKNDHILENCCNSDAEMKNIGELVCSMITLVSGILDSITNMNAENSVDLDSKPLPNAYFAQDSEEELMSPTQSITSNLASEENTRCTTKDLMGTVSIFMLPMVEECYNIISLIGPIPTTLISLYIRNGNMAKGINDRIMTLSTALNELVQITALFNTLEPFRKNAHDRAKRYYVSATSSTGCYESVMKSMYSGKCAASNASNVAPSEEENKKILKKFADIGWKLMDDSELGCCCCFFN
Procedure: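 Universal 'all 10-mer' protein binding microarrays (Agilent AMADID 015681) probed with GST-tagged S. cerevisiae TFs (full-length or DBD) made by in vitro transcription/translation (PURExpress), about 100-200 nM. Bound TF was detected with fluorescent anti-GST. Each ungapped 8-mer (which stands for itself and its reverse complement) is scored by the PBM enrichment score (E-score), a modified Wilcoxon-Mann-Whitney statistic from -0.5 to +0.5, computed with the Universal PBM Analysis Suite. Scale: above 0.35 generally sequence-specific binding.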

Point of comparison: CCTTGTAA, “PBM E-score” value 0.168. Against it:
- CAAGTGAG — lower, -0.16
- AATAGAGT — lower, 0.0357
- TAAAACGA — lower, -0.0302
- ATGTACCC — lower, -0.15
- ACAACCAG — lower, 0.102
- TGCTTCAA — lower, -0.0689
- ACATTCCA — lower, 0.142
- ATCCCAGA — lower, -0.251
- TCTATGAA — higher, 0.18
- CCAAAACA — lower, -0.026
- CCACAGAG — lower, -0.11
- GGCTGCAA — lower, -0.035
- ACCTGCCA — lower, -0.145
- AGTCACAT — lower, 0.0586
- TGTGGTAA — lower, 0.0658
- CGTTAAGA — lower, 0.0447
- TAATCGGA — lower, 0.0884
- ATCCTCGA — lower, 0.131
- CTCACAAC — lower, 0.094
- AACCGGAC — lower, 0.00664
- ACGGAAAA — higher, 0.422
- CGCGAGAG — lower, -0.0813
- ATGGTCAC — lower, -0.0478
- ATGTAGCG — lower, -0.165
- ACCTCTCG — lower, -0.107
- AGGCAGTG — lower, -0.0313
- ATAGAGGA — lower, -0.0197
- GAGATCCC — lower, 0.0749
- ACCGGCCA — lower, -0.314
- AGGCCGCC — lower, -0.287
- ACCTCAGA — lower, -0.178
- GAGATAAA — higher, 0.199
- AATGGATC — lower, 0.0944
- AGTACGAT — lower, 0.0266
- CGGGGCGA — lower, -0.145
- AACCCAAG — lower, 0.0383
- CAGTAGGC — lower, 0.0494
- TGTACGAA — lower, 0.121
- GTTATATA — lower, 0.154
- CCGCGCGA — lower, 0.00927
- ATCAACTC — lower, 0.083
- CTCGAGAC — lower, -0.0239
- AAGTTGCA — lower, -0.0761
- AAGCGGCA — lower, 0.0443
- GAAGCAAA — lower, 0.0788
- ACGCCAGT — lower, 0.00472
- ACCAACTC — lower, -0.0506
- CCAGAAAC — lower, -0.0409
- AGTCTAAA — lower, 0.103
- CTTATACC — lower, 0.109
- CTTCCGAC — lower, 0.0527
- GGGGCCCC — lower, -0.304
- GTTTCGTA — higher, 0.172
- CTTGTGGC — lower, -0.108
- ATTATAAT — higher, 0.205
- GTACGTTA — higher, 0.177
- ACCTCCGT — lower, 0.0387
- CACTTAAC — lower, 0.167
- CACGGCAC — lower, -0.168
- GGGTCTTA — lower, -0.13
- ACAATCAG — lower, 0.124
- ATTATTGC — higher, 0.225
- CCGCCCGC — lower, -0.0969
- GATCAGAC — lower, 0.00463
- AAGCCTCG — lower, -0.158
- TAGATTAA — higher, 0.312
- AGACTCTA — lower, -0.0647
- CCTTCGAA — lower, 0.0559
- CGAGCGTC — lower, -0.183
- CCCGGCTC — lower, -0.271
- ACACTAAT — lower, 0.0168
- CGGCTGTC — lower, -0.00597
- CCCCTGTA — lower, -0.13
- CAATCAAA — lower, 0.111
- AACAATCC — higher, 0.338
- AGTTGTGA — higher, 0.26
- AATACGGC — higher, 0.189
- ACGAATAC — lower, 0.0881
- GGAAACAA — lower, 0.101
- ACACCATG — lower, -0.0872
- CCAAACAA — lower, 0.157
- GCAGGAGC — lower, -0.204
- CACGTCGC — lower, -0.17
- ATCCACAA — lower, 0.125
- ATTCCTTC — higher, 0.17
